In the RNAGym collection of RNA variant scans (doi:10.1093/nar/gkz1192) one finds self-cleavage data, which are given here for 167 variants.

Read counts are not given, so values of variants with three or more changes are uncertain.

First the molecules themselves.
B1: CPEB3 Ribozyme (parent)
chain: UAACAGGGGGCCACAGCAGAAGCGUUCACGUCGCAGCCCCUGUCAGAUUCUGGUGAAUCUGCGAAUUCUGCUGUAUAUCUC

This series covers variants of B1. Kind of series: self-cleavage, relative activity (ratio to wild type); higher = more cleavage; in vitro, sequencing. Summed up:
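Relative activity was defined as the cleaved/total read fraction for a variant divided by the same fraction for the unmutated ribozyme. CPEB3 self-cleaving ribozyme libraries were made by rounds of error-prone PCR, barcoded, and transcribed in vitro with T7 RNA polymerase for 5 hours at 37°C, and cleavage ran through transcription plus a 15 min DNase I step before EDTA. Illumina sequencing of template-switched reverse transcripts gave the reads, and DNA sequencing mapped the barcodes. Averages come from three batches, using variants with at least 5 reads.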
Regarding A5G A28C U43C U74C, the self-cleavage worked out at 0.57. The value for A5U A18U U58A U74C was 0.36; that for A5G A35G A57C U66C U74C was 0.32; that for A5G U49A U69G was 0.47. The value for A5G C14U C34A U41A G52U was 0.08. The value for A5G U43C U49A A57C was 0.11; that for A5G C23U U25C was 0.04; that for A5G G9A U25A C37U U54G A75G was 0.06. With A5G G33U U41A U54A A57G A64G, the self-cleavage came out at 0.08. The value for A5G C40U G53A A56G A65G U69C was 0.08; that for A5G C62U U67C U80A was 0.16. The value for A5U A18G A35G U41A U67A was 0.44; that for A5G U49A A56U U67C was 0.04. The value for A5U A15U A64G U67G was 0.17. Take A5U A13G U26C A28U U31A U60C U69G: the self-cleavage was determined as 0.06. The value for A5G A45U U48C was 0.08; that for A5G C11U A77G was 0.24. A5G G16A U43C A64G U66C: the self-cleavage was 0.06. The value for A5U A13U A15C U31C U41G A56U was 0.09. Take A5G U41C U43A A47G U66C: the self-cleavage was determined as 0.26. With A5G A21U U43C A45G U72A, the self-cleavage turned out to be 0.65.

As for A5U A13U C39U, the self-cleavage worked out at 1.18. The value for A5G U26A U54C A64U A65U was 0.16. Turning to A5G U51A C71A, the self-cleavage is 0.14. On to A5G U25C A57G U66C, for which the self-cleavage is 0.27. Turning to A5G G24A C62A U69C, the self-cleavage came to 0.09. The value for A5G G10A C23U U43A U74C A75U was 0.06; that for A5G U26C G55A C71G was 0.43. The value for A5G G9A U49A was 0.08; that for A5G A57G G70A was 0.53; that for A5U A18G U26C C50U U69C was 0.65. The value for A5G U43C U60A was 0.3; that for A5U A18G C29U A35G U48C U72C was 0.21. On to A5G U31C A35U U78A, for which the self-cleavage came out at 0.31. The value for A5G C38U U80C was 0.57; that for A5G G6U G61A U74C was 0.49. The value for A5G C17U G30U U43C U66C U69G A75G was 0.07.

As to A5G U26C C40A U58C, the self-cleavage came to 0.1. With A5G A35U U48C A65G, the self-cleavage came out at 0.07.

Regarding A5G U31C U49C A75U, the self-cleavage amounted to 0.56. In the case of A5G U43C G55A, the self-cleavage worked out at 0.18. The value for A5G C29A U41A U48G was 0.14; that for A5G G7U G30A U72C was 0.08. The value for A5U A18G U48A was 0.63; that for A5U A20G C40G U60G U80C was 0.35; that for A5G G30U U49C was 0.41. The value for A5G A21U C34U U58A U78G U80C was 0.13. As to A5G G22A G30A U48C U51C C62U G73A, the self-cleavage was found to be 0.03. The value for A5G G7U A13G A18U U26A U74C was 0.52; that for A5G U54C A56G U72C was 0.59. Take A5G U25C C34U A56G A65G G73A: the self-cleavage stood at 0.21. Consider A5G U60C U66A, for which the self-cleavage is 0.24. The value for A5G A35U U51C A64G U67C was 0.05; that for A5G U31C U74G was 0.83. Consider A5G C12U A20U A21U A47U U72C G73A, for which the self-cleavage was 0.08. For the variant A5U A18G U60A, the self-cleavage came to 0.55. The value for A5G U49C U58A U78C was 0.18; that for A5G G10A U54G G55U was 0.33. The value for A5G G33U U49C U51A was 0.1; that for A5G A28U C34U U48C U51A U58C U80A was 0.08; that for A5G A28U U31C U60A was 0.28. The value for A5G G46A U74C was 0.39. A5G U26C U48C U54A: the self-cleavage is 0.27. The value for A5G U26C U41G G70A U80C was 0.37; that for A5G G33A U43C A45U C68A was 0.23; that for A5G C12U U43C U54C U58C was 0.17. The value for A5U A13G U43C was 0.43; that for A5U A15U U25A U72C U76A U78C was 0.15; that for A5G G9U C29G U41A U58C was 0.31. The value for A5G C23A U76C was 0.09; that for A5U A18U U67C was 0.14; that for A5G A28G U49C U60A was 0.16. Take A5U A15G A21G A47G A77U: the self-cleavage stood at 0.92. With A5U A13U C14A, the self-cleavage is 0.96.

Regarding A5G U43C G70A, the self-cleavage was 0.1. The value for A5G U26C A47C U72C was 0.26. The value for A5G G6A C32A A35G U67A was 0.17. The value for A5G G16A U41G U72C U78C was 0.08.

Take A5G C17U A18G A20G U31A A45C A47U: the self-cleavage worked out at 0.06. The value for A5G G52C A56G A64G was 0.25; that for A5G G7U A15G A35C A57G U78C was 0.36; that for A5G G33U U48C was 0.26. Take A5G U26C A28G G70A: the self-cleavage came to 0.43. The value for A5G G16A U25A U49C A57G was 0.38; that for A5G A65G U76C was 0.32; that for A5G G16C U51A was 0.38. In the case of A5G U25C U80G, the self-cleavage amounted to 0.5. The value for A5G U26C U41C U54A was 0.09. The value for A5G A28G C34U U54G U69C was 0.1; that for A5G G8A G33C U43A A57G U60C U80A was 0.05; that for A5G U31G A47G U49A U72C was 0.48. The value for A5G C17U A18G U67C was 0.25. A5G G10A A13U U31G U54C A77U: the self-cleavage is 0.06. The value for A5G C37U U60C was 0.28.

As for A5G G10U G30C, the self-cleavage is 0.34. The value for A5G G61A U67C was 0.27; that for A5G G7U U54C G70A U72C was 0.09; that for A5G A21U U41C was 0.29.

Take A5G A21G U66C: the self-cleavage was 0.58. As for A5G G7U A28G U72C, the self-cleavage turned out to be 0.4. The value for A5G C23U U26C A35G U60C U67C was 0.22; that for A5G A57G U67C was 0.24; that for A5G C23A U26A A35U U54C A65U U72G was 0.04. The value for A5G G7A A15U A18U U48G A64G was 0.07. The value for A5G A47U U49C U78C was 0.34; that for A5U A15C A21G U26A A47U U67C was 0.09; that for A5G A45U A47G U67C was 0.29. As for A5G A45G G63A U66A, the self-cleavage came out at 0.39. As for A5G A28G U31C U51C A57G U58C A65G, the self-cleavage worked out at 0.7. The value for A5G U43A A57G was 0.79.

For A5G U25C A35G C50U U60A, the self-cleavage came to 0.29. The value for A5G G10U U41G A56U U74A was 0.06; that for A5G A28G G33U U49C was 0.21. The value for A5G G30A A77G was 0.62. The value for A5G U25C C32U was 0.26; that for A5G U51C A65U was 0.28; that for A5G G8A A20G A21U C27U G63A was 0.14. As to A5U A15U A47G A56U C68U, the self-cleavage is 0.23. The value for A5U A18U G33A A45U was 0.48; that for A5U A13U C40A U60A U78C was 0.09; that for A5G G30C U31C U54A was 0.13.

Turning to A5G U25C A35G U54C A65G U69C, the self-cleavage worked out at 0.3. The value for A5G U51A G70A was 0.12. For A5G C32U U69C U74A, the self-cleavage was 0.11. Turning to A5U A13G A20G G55U A77U, the self-cleavage is 0.68. Regarding A5U A15G U43A U49A U60A, the self-cleavage came to 0.33. For the variant A5G C29U U51C, the self-cleavage was determined as 0.14.

With A5U A15U G24A C29U U41C U72C A77G, the self-cleavage came to 0.04.

For the variant A5G A21U U41A A56G A64G U69A A75U, the self-cleavage amounted to 0.1. Consider A5G A35U U43C A45G, for which the self-cleavage amounted to 0.23. The value for A5U A20G C29U U41A U54C U78C was 0.03.

As for A5G U26C A35G U48C, the self-cleavage is 0.16. The value for A5G C17U U41A U48A A56G U74C was 0.05; that for A5G G6U A28U U80C was 0.66; that for A5G A35G U43A U60C U78C was 1.15.

As for A5G G9A C37U U72C U74C, the self-cleavage came out at 0.07. In the case of A5G C14U A64U, the self-cleavage amounted to 0.51. The value for A5G G10A C17U U26C was 0.09. The value for A5G A28U U80C was 0.31; that for A5G A28G A47U U54A A56U A64G U80A was 0.09; that for A5U A15U U31G G33C U78C was 0.07.

Regarding A5U A13G A18G U41C C71A, the self-cleavage amounted to 0.1.

A5G U31C A45G U58C: the self-cleavage came to 0.05.

For the variant A5G C11A G33U U43C A45U U74A U80C, the self-cleavage is 0.05. The value for A5G G33A A65U U69A was 0.23; that for A5U A15G U25C A47G U48C U69C was 0.27; that for A5G A35G U69G was 1. For A5G C27U U31C U51A A56G, the self-cleavage is 0.33.

As to A5U A13G A18U U78A, the self-cleavage is 0.29.

Turning to A5G U60C U67C U80C, the self-cleavage was determined as 0.11.

For A5G G9U U26C C29U A56G U72C, the self-cleavage is 0.34. The value for A5G A56U A57U A77U was 0.15; that for A5U A13U U25C G61U U72G A75G was 0.12; that for A5G G70A A75G was 0.11. The value for A5G U41C G61A A64G U67C A77U was 0.06. The value for A5U A13U U31C A47U was 0.51.

With A5G G30A U31C C32U G63U U74C, the self-cleavage is 0.5.

Turning to A5G U26C U51C U54C, the self-cleavage was 0.63. The value for A5G G19A A28G U31A G46A U60C A64G was 0.05. Take A5U A18G A45G: the self-cleavage was found to be 0.36. Consider A5G G7C U49C, for which the self-cleavage was 0.79. A5G U58C U66C: the self-cleavage came to 0.19. Regarding A5G C23G U25C A45U U69C, the self-cleavage worked out at 0.08. The value for A5G C12U A15G was 0.34. As for A5U A18U G33C U43A U48C, the self-cleavage was found to be 0.24.

For A5G A28U U54C, the self-cleavage is 0.48. The value for A5G G22U U60C was 0.3.
